Experimental data from the supplement of paper PMC10126150.
Sequences with one replicate were seen in a single cluster, so their values are uncertain.

system: ATP; assay: switch fluorescence ratio, 500 uM ATP over buffer (Cy3 cluster intensity, sum of 5 cycles each) (fold (ratio)); higher = stronger signal-on switching upon ATP binding; sequences stand for … in TCGTCGGCAGCGTCAGATGTGTATAAGAGACAGTTTTTTTTTTTTTTTTTTTTTTTTT…TC; conditions: aptamer strand: ATP DNA aptamer (quencher-CACCTGGGGGAGTATTGCGGAGGAAGG + anchor), 100 nM annealed; ATP concentration: 500 uM; one replicate
Summary of the method: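 Imaging in selection buffer was followed by imaging after 15 min with 500 uM ATP at 22 °C, for Cy3-labelled switching-strand clusters annealed to 100 nM quencher-labelled ATP aptamer on a modified Illumina MiSeq flow-cell. Five of these buffer/ATP cycles ran, separated by NaOH stripping and re-annealing. The fluorescence ratio per cluster is summed target-cycle over summed buffer-cycle Cy3 intensity, averaged per switch-domain sequence; clusters outside 100-1000 RFU were removed.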
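Further: ATP exposure 15 min at 22 °C before imaging.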

Sequence	switch fluorescence ratio
TTAACCTTA	1.13
TTAACGCAGT	1.03
TTAACGGCCA	1.01
TTAACTACTT	1.03
TTAACTTTGA	0.999
TTAAGAACGT	0.963
TTAAGCAATA	1.91
TTAAGCAGCG	1.04
TTAAGGAGTA	1.01
TTAAGGATCG	0.972
TTAAGGCGTG	1
TTAAGGTA	0.973
TTAAGGTATC	1.01
TTAAGTATAG	1.04
TTAAGTGGTC	1.12
TTAAGTGTGC	1.06
TTAATAACAG	1.02
TTAATCAGCT	1.03
TTAATCAGTG	0.999
TTAATCGCAC	0.99
TTAATCGTTC	1.05
TTAATGAGCT	1.01
TTAATTAGAG	0.982
TTACAAAGT	0.976
TTACAAATAT	1.06
TTACAATTGC	1.36

Sequence	switch fluorescence ratio
TTACAATTGG	1.03
TTACAATTTA	1.02
TTACACACGC	1.47
TTACACGGTT	1.05
TTACAGCCCG	1.06
TTACAGCCGA	1.06
TTACAGTTTG	0.913
TTACATCGAC	1.05
TTACATGGCG	1.02
TTACCCACTA	1.39
TTACCCATCG	0.956
TTACCCTCCT	1.17
TTACCGGTCT	1.05
TTACCGTTAC	1.39
TTACGCGCTC	4.36
TTACGGAACA	1.29
TTACGGAGCG	1.06
TTACGGCACA	1.47
TTACGGCGGA	1.05
TTACGGGCTG	0.998
TTACGGTGCA	1.01
TTACTACGCG	1.04
TTACTCAGTA	1.03
TTACTGATGA	0.975
TTACTGGGAT	1.06
TTACTTAGCT	1.04

Sequence	switch fluorescence ratio
TTACTTTCTC	1.08
TTAGAAACAA	1
TTAGAAGTCT	0.957
TTAGAATCCA	0.96
TTAGACTCAG	1
TTAGAGTGCT	0.938
TTAGATAATA	1.01
TTAGATATGA	0.998
TTAGATCCGG	1.03
TTAGATGAGA	0.975
TTAGATTATA	0.996
TTAGATTCCA	1
TTAGCAAAAT	1.39
TTAGCACGC	1.09
TTAGCATTG	1.02
TTAGCCGCCT	1.07
TTAGCGACCC	1.45
TTAGCTCACG	1.04
TTAGCTCAGC	0.983
TTAGCTTTTA	1
TTAGGAAACT	1.03
TTAGGCCCAG	0.999
TTAGGCCG	0.942
TTAGGCTAAG	0.995
TTAGGCTGG	1
TTAGGCTTCA	1.1

Sequence	switch fluorescence ratio
TTAGGGCATG	1.01
TTAGGGGAAC	0.973
TTAGGGTAGT	1.02
TTAGGGTATA	1.03
TTAGGTCAGC	0.944
TTAGGTTGCG	1.04
TTAGTAAGCC	1.05
TTAGTCATGG	0.993
TTAGTCCAAA	1.01
TTAGTCCACC	1.04
TTAGTCGTT	0.975
TTAGTGAAAG	1.01
TTAGTGAAGA	0.973
TTAGTGCGAG	1.02
TTAGTTGGCC	1.01
TTATAAACAC	1.09
TTATAACTGT	0.959
TTATACGAAG	1.04
TTATACGCAT	2.94
TTATACTAAT	0.966
TTATACTATA	1.05
TTATAGACCG	0.985
TTATAGCAGA	0.988
TTATAGGATT	1.01
TTATAGGTAA	0.994
TTATATATT	1.02

Sequence	switch fluorescence ratio
TTATATGGGC	0.97
TTATCCTTGA	0.993
TTATCTTATA	1.01
TTATGATCAA	0.996
TTATGCCGC	0.969
TTATGCGCAT	1.03
TTATGGCAAA	1.01
TTATGGCGAC	0.999
TTATGTGCCA	0.988
TTATGTGGA	1.03
TTATGTTAG	1.01
TTATTAGAAA	1.04
TTATTAGTAC	1.04
TTATTCTGGG	0.964
TTATTGATAA	0.99
TTATTGATGT	1
TTATTGCCGC	1
TTATTTCATA	1.04
TTCAAATTAG	1
TTCAAATTGA	1.28
TTCAAGACTC	1.16
TTCAAGTAAA	1.03
TTCAATTATT	0.986
TTCACCACCG	1.06
TTCACGAAAC	1.05
TTCACTAAGT	1.02

Sequence	switch fluorescence ratio
TTCACTATCC	1.04
TTCACTCGTT	1.05
TTCACTGCAG	0.996
TTCAGATCGT	0.972
TTCAGATGCT	1.01
TTCAGGGAG	1.01
TTCAGGTATT	1.01
TTCAGTAATG	0.995
TTCAGTATTG	1.05
TTCATAACGT	1.01
TTCATAAGGA	0.981
TTCATAGGGA	0.944
TTCATAGTGG	0.991
TTCATATAAT	1.01
TTCATCATC	0.995
TTCATCGTTG	1.01
TTCATGCCCA	0.959
TTCATGGAT	0.981
TTCATTGAAA	0.975
TTCATTTCC	1.12
TTCATTTGGC	1.01
TTCCAAAATA	0.999
TTCCAAGTAG	1.06
TTCCAGATGT	1.05
TTCCAGCGCC	1.32
TTCCAGGCAG	1.05

Sequence	switch fluorescence ratio
TTCCAGGCAT	1.04
TTCCAGTCCG	1.03
TTCCATCTAG	0.976
TTCCATTCCG	1.09
TTCCCAGGAT	4.33
TTCCCAGGGG	4.38
TTCCCCCTTA	1.09
TTCCCCGGCG	1.33
TTCCCCTACC	1.18
TTCCCTGCTC	1.37
TTCCGCGACC	3.26
TTCCGCGGGC	1.12
TTCCGCTTAG	2.18
TTCCGTTCTA	1.04
TTCCGTTGCC	1.88
TTCCGTTTGC	1.46
TTCCTAAACG	1.06
TTCCTAGAC	2.5
TTCCTAGTG	1
TTCCTCCTAA	1.65
TTCCTGGATC	1.01
TTCCTGGG	0.994
TTCCTGTCAT	0.988
TTCCTTGGCG	1.02
TTCCTTTCA	1.13
TTCGAACTTT	1

Sequence	switch fluorescence ratio
TTCGAGTCAA	1.51
TTCGATCGGT	0.992
TTCGCCCAAT	2.06
TTCGCGCGAA	0.985
TTCGCGGAAC	2.07
TTCGCTCGTG	0.986
TTCGCTGCGT	1.02
TTCGCTTAT	1.11
TTCGGACAGG	0.985
TTCGGACCCT	1.19
TTCGGCATAT	4.66
TTCGGCTAGT	0.971
TTCGGCTGGC	0.957
TTCGGGAATC	1.07
TTCGGGAGAT	0.997
TTCGGGAGTT	1.05
TTCGGGGGCC	1.03
TTCGGGTA	1.04
TTCGGTAATT	1.03
